In all, about 310,000 compounds went through this assay and about 14,000 (4.5%) showed an effect of 50% or more. The effect is printed as a negative number. The list shows a part of the results.
Molecular target: human ether-à-go-go-related gene (hERG) potassium channel (human, UniProt Q12809)
Assay: primary screen, population patch clamp on CHO cells stably expressing hERG
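Also: peak tail current of the secondary pulse compared with the same well before compound.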

human ether-à-go-go-related gene (hERG) potassium channel, sequence (Q12809 whole entry, looked up): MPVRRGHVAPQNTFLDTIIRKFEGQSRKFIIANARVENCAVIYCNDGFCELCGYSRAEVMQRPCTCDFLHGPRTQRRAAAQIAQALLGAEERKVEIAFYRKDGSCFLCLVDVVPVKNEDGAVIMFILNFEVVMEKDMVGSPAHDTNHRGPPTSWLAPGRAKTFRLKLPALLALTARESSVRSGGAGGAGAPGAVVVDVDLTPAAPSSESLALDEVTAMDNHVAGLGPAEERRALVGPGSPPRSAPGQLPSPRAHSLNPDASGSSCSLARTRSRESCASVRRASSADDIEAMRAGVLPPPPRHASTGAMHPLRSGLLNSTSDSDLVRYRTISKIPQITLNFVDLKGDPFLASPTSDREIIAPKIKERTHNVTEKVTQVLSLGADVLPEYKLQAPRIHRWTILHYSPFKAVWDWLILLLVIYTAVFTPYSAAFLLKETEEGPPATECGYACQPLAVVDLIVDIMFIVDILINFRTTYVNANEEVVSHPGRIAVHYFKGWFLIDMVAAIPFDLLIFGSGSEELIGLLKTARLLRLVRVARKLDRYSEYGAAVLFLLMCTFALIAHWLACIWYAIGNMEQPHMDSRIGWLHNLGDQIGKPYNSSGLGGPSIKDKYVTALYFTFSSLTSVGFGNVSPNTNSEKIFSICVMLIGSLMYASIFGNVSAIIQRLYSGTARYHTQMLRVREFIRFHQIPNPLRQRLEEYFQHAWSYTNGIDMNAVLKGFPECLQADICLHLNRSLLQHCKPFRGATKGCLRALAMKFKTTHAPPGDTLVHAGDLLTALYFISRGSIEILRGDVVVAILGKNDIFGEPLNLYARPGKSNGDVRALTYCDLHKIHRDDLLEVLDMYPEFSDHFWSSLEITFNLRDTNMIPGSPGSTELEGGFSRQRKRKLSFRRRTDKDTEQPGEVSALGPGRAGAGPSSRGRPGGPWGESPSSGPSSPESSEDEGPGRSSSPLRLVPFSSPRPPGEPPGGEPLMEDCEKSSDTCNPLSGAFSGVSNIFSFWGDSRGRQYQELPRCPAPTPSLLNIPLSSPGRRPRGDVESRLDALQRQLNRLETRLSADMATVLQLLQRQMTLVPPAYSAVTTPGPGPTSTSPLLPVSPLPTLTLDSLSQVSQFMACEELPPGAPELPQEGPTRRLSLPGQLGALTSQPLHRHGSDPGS

Row | Compound | hERG current change (%, negative = inhibition) at 10uM [%]
1 | COc1ccccc1CN1CCC(CNS(=O)(=O)c2cc(-c3onc(C)c3C)ccc2OC)CC1 | -76.7
2 | NC(=O)C1(N2CCCCC2)CCN(CC(=O)Nc2ccccc2Sc2ccccc2)CC1 | -2.74
3 | CCCCn1c(N)c(-c2nc3ccccc3o2)c2c([N+](=O)[O-])nn(CC)c(=O)c21 | 2.15
4 | Fc1ccc(CNC(=S)Nc2ccccc2Cl)cc1 | 4.82
5 | Fc1ccc(C2c3[nH]c4ccccc4c3CCN2Cc2ccoc2)cc1 (stereo not shown) | -26.8
6 | COc1ccc(CN2C(=O)C(CC(C)C)Nc3ncnc(N4CCN(c5ccccc5)CC4)c32)cc1.O=C(O)C(F)(F)F (stereo not shown) | -10.4
7 | COc1ccc(OC)c(C(=O)Nc2ccc3[nH]ccc3c2)c1 | 2.15
8 | Cc1cccc(Nc2nc(NCCCN3CCOCC3)nc(N)c2[N+](=O)[O-])c1 | -17.9
9 | CC(=O)N1CCN(C2=Nc3cccc4cccc2c34)CC1 | -46
10 | O=C(CCC1CCCN(C(=O)Cc2ccc(F)cc2)C1)N1CCN(c2ccccn2)CC1 (stereo not shown) | -16.6
11 | CCOC(=O)c1c(NC(=O)Cc2cccs2)sc2c1CCCC2 | 5.61
12 | c1ccc2[nH]c(CSc3nc4ccccc4o3)nc2c1 | -7.86
13 | COc1ccc(-c2cc(C(=O)N/N=C(\C)c3cccnc3)c3ccccc3n2)c(OC)c1 | 1.6
14 | CC(C)Oc1ccc(CNC(=S)N/N=C/c2ccc([N+](=O)[O-])cc2)cc1 | 5.16
15 | O=C(NN1CCOCC1)c1ccc([N+](=O)[O-])cc1 | 4.35
16 | CCCCn1c(N)c(N(CCOC)C(=O)c2cc3ccccc3cc2OC)c(=O)[nH]c1=O | 27.1
17 | CCn1c2ccccc2c2cc(NC(=O)c3ccc(C)c([N+](=O)[O-])c3)ccc21 | 2.4
18 | CCOc1ccc(S(=O)(=O)n2c(C)nc3ccccc32)cc1 | -13.4
19 | CN(C)S(=O)(=O)c1cc(NC(=O)CNCCN2CCOCC2)ccc1Cl.O=C(O)C(=O)O | -6.15
20 | O=C(NCc1ccncc1)c1cc(-c2ccc(Cl)cc2)oc1C(F)(F)F | 5.31
21 | CCN(CC(=O)Nc1cc(Cl)ccc1C)C(=O)CCS(=O)(=O)c1ccc(Cl)cc1 | -27.6
22 | CCOCC(=O)Nc1nnc(SCCOC)s1 | -0.419

Row | Compound | hERG current change (%, negative = inhibition) at 10uM [%]
23 | O=C(NC1CC1)C1CCN(C2CCN(C(=O)CC3=CCCCC3)CC2)CC1 | 4.68
24 | Oc1c(Br)cc(Br)cc1/C=N/c1nccs1 | -19.6
25 | CC(C)(C)c1cc(NC(=O)c2cccc([N+](=O)[O-])c2)no1 | 3.8
26 | O=C(COc1ccccc1F)NNC(=O)c1ccc(N2CCCCC2)c([N+](=O)[O-])c1 | -36
27 | COc1ccccc1CCNC(=O)Cn1ccc2cc(S(=O)(=O)N3CCCC3)ccc21 | 24.4
28 | Cc1cc(S(=O)(=O)Nc2noc3ccccc23)ccc1F | 20.9
29 | COc1cc(C(Nc2ccc3c(c2)OCO3)C(=O)NC2CCCCC2)cc(OC)c1OC (stereo not shown) | -61.7
30 | CCc1cccc(C)c1NC(=O)CCCC(=O)O | 12
31 | O=C(Nc1ccc(Cl)cc1)Nc1nnc(CSc2ccc(Cl)cc2)s1 | -3.83
32 | CC(C)CCN(C(=O)c1csnn1)C(C(=O)NC1CCCC1)c1ccccc1 (stereo not shown) | -27.8
33 | Cc1ccc(S(=O)(=O)Nc2ccccc2-c2nc3ccccc3[nH]c2=O)cc1 | -5.94
34 | COc1cc(NC(=S)N2CCN(C/C=C/c3ccccc3)CC2)cc(OC)c1 | -10.7
35 | O=C(NCc1ccccc1)c1csc(-c2cccnc2)n1 | -9.49
36 | CC1=C(C#N)C(c2ccoc2)C(C(=O)OCc2ccccc2)=C(N)S1 (stereo not shown) | -1.32
37 | O=C(Nc1ccc(Cc2ccncc2)cc1)c1cc(F)c(F)cc1Cl | -71.2
38 | O=C1C=C(Nc2ccc(Cl)cc2)C(=O)N1c1ccc(Cl)cc1 | 9.57
39 | CC(C)Cc1oc(C(=O)O)cc1CN.Cl | -4.32
40 | Nc1nc(CN2CCCCC2)cs1 | 0.0465
41 | Cc1nc(SCC(=O)NC(=O)NCc2ccccc2)nc(C)c1C | -21.8
42 | Cc1sc2ncn(CC(=O)NCC3COc4ccccc4O3)c(=O)c2c1S(=O)(=O)N1CCOCC1 (stereo not shown) | 18.5
43 | O=C(NC(=S)N1CCOCC1)c1cn(-c2ccccc2)nc1-c1ccccc1 | 10.8
